T1: rat CLDN18.1 on CHO-GS cells (rat, UniProt Q5I0E5 1-261)
T1 construct: whole, on cells; also called murine CLDN18.1
T1 sequence (looked up): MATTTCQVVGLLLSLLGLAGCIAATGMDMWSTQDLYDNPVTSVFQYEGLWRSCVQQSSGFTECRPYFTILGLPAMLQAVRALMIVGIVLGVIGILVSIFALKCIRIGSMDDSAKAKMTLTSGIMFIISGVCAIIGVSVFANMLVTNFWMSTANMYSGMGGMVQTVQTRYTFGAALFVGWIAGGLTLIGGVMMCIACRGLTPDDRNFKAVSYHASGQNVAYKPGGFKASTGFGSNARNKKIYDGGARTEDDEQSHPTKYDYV

B1: HB37A6 antibody, wild-type human IgG1 Fc (antibody)
heavy: EVQLLDSGGGLVQPGGSLRLSCAASGFTFSSYVMSWVRQAPGKGLNWVSTISHSGGSTYYADSVKGRFTISRDNSKNTLYLQMNSLRAEDTAVYYCAIDAPYYDILTGYRYWGQGTLVTVSS[no letters for human IgG1 constant region]
light: not shown
notes: also called WT A6 antibody; A6 WT
B2: HB37A6 PG Ab (P329G mutated HB37A6 antibody, human IgG1) (antibody)
heavy: EVQLLDSGGGLVQPGGSLRLSCAASGFTFSSYVMSWVRQAPGKGLNWVSTISHSGGSTYYADSVKGRFTISRDNSKNTLYLQMNSLRAEDTAVYYCAIDAPYYDILTGYRYWGQGTLVTVSS[no letters for human IgG1 constant region with changes]
light: not shown
notes: also called A6 PG antibody; P329G A6 antibody

Assays:
[1] = molecular target: T2, P329G CAR on P329G CAR-T cells (construct not specified); test: flow cytometry on P329G CAR-T cells
T2 construct: also called P329 CAR; PG CAR; not shown: hinge, transmembrane and intracellular parts

[2] = molecular target: T3, human Claudin18.2-His (Acro, CL2-H5546) (human, UniProt P56856-2 1-261); test: SPR (Biacore T200), Claudin18.2-His coupled on CM5 chip, antibody in the mobile phase (avidity)
T3 construct: Bought reagent, amine-coupled to a CM5 chip; also called recombinant human CLDN18.2 protein; not shown: His tag

[3] = molecular target: T1, rat CLDN18.1 on CHO-GS cells; test: flow cytometry on CHO-GS cells expressing rat CLDN18.1 (EC50)
[4] = molecular target: T4, mouse CLDN18.1 on CHO-GS cells (mouse, UniProt P56857 1-264); test: flow cytometry on CHO-GS cells expressing mouse CLDN18.1 (EC50)
T4 construct: whole, on cells; also called murine CLDN18.1

T2 sequence (chain, as listed by the source P329G P329G P329G P329G): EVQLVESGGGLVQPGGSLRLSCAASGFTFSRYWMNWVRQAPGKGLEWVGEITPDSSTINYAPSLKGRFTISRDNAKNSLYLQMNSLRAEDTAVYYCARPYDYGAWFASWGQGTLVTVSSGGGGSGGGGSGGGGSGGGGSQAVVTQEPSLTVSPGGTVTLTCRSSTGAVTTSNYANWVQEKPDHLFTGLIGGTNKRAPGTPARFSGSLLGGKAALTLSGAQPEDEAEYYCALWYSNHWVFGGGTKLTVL

Row | Binder | binding result [1] | Kd [2] | koff [2] | kon [2] | binding result [3] | binding result [4]
1 | B1 | no binding | < 5.04 pM | < 1e-05 s⁻¹ | 1.98e+06 M⁻¹ s⁻¹ |  | 
2 | B2 |  | < 4.08 pM | < 1e-05 s⁻¹ | 2.45e+06 M⁻¹ s⁻¹ | binds | binds

Reference: patent publication US20250009801A1 (Innovent, published 2025)
